# Some of the results follow.
# B1: Epa3 (Candida glabrata), Q6VBI8_CANGB (protein)
# chain: MGSSHHHHHHSSGLVPRGSHMNDLGFSLFEKRELSSQNPFGYPIGCSPQDVAIIPGLTMELYSYPIVSGTPPNCYDASYVDPEYPRTGYLKRKMVGKSTGVTGNLNYKYSVEKACMVKYGNLPAGYNYNEPLTVSNFTMILYGYFKAQTTGLHTFFVNADDLLYINFGAGNAFDCCKREDSKTKLGEYVAYDIWHVDSSKNKVSLFLEKDLYYPIRMFFNNIGKDSSLDLSFSVNGATDQISDFSGYLYSVPDQPDTCPAHIGYDTTCR
# Key:
# Assay in all cases: glycan array binding signal (z-score within array); higher = stronger binding
# Conditions in all cases: glycan notation: IUPAC condensed, linker removed
# Gal(a1-6)Glc = target: Gal(a1-6)Glc
# How it was run: (§1)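 Glycan array data came from 3228 arrays in the Consortium for Functional Glycomics database, and only arrays with an available protein sequence were kept. Glycan names were put into IUPAC-condensed notation, and columns mapping to the same glycan were averaged. The binding signal is a within-array Z-score, averaged across arrays of one protein sequence run at different concentrations or buffers and across linkers. A negative Z-score can be read as non-binding.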
# Gal(b1-2)Gal = target: Gal(b1-2)Gal
# How it was run: as §1
# Gal(b1-3)Gal = target: Gal(b1-3)Gal
# How it was run: as §1
# Gal(b1-3)Gal(b1-4)GlcNAc = target: Gal(b1-3)Gal(b1-4)GlcNAc
# How it was run: as §1
# Gal(b1-3)GalNAc = target: Gal(b1-3)GalNAc
# How it was run: as §1
# [1] = target: Gal(b1-3)GalNAc(a1-3)[Fuc(a1-2)]Gal(b1-4)Glc
# How it was run: as §1
# [2] = target: Gal(b1-3)GalNAc(a1-3)[Fuc(a1-2)]Gal(b1-4)GlcNAc
# How it was run: as §1
# Gal(b1-3)GalNAc(b1-3)Gal = target: Gal(b1-3)GalNAc(b1-3)Gal
# How it was run: as §1
# [3] = target: Gal(b1-3)GalNAc(b1-3)Gal(a1-4)Gal(b1-4)Glc
# How it was run: as §1
# [4] = target: Gal(b1-3)GalNAc(b1-4)Gal(b1-4)Glc
# How it was run: as §1
# [5] = target: Gal(b1-3)GalNAc(b1-4)[Neu5Ac(a2-3)]Gal(b1-4)Glc
# How it was run: as §1
# Gal(b1-3)GlcNAc = target: Gal(b1-3)GlcNAc
# How it was run: as §1
# [6] = target: Gal(b1-3)GlcNAc(a1-3)Gal(b1-4)GlcNAc
# How it was run: as §1
# [7] = target: Gal(b1-3)GlcNAc(a1-6)Gal(b1-4)GlcNAc
# How it was run: as §1
# Gal(b1-3)GlcNAc(b1-2)Man = target: Gal(b1-3)GlcNAc(b1-2)Man
# How it was run: as §1
# [8] = target: Gal(b1-3)GlcNAc(b1-2)Man(a1-3)[Gal(b1-3)GlcNAc(b1-2)Man(a1-6)]Man(b1-4)GlcNAc(b1-4)GlcNAc
# How it was run: as §1
# [9] = target: Gal(b1-3)GlcNAc(b1-2)Man(a1-3)[Gal(b1-3)GlcNAc(b1-2)Man(a1-6)]Man(b1-4)GlcNAc(b1-4)[Fuc(a1-6)]GlcNAc
# How it was run: as §1
# [10] = target: Gal(b1-3)GlcNAc(b1-2)Man(a1-3)[GlcNAc(b1-4)][Gal(b1-3)GlcNAc(b1-2)Man(a1-6)]Man(b1-4)GlcNAc(b1-4)GlcNAc
# How it was run: as §1
# [11] = target: Gal(b1-3)GlcNAc(b1-2)[Gal(b1-3)GlcNAc(b1-6)]Man(a1-6)[Gal(b1-3)GlcNAc(b1-2)Man(a1-3)]Man(b1-4)GlcNAc(b1-4)GlcNAc
# How it was run: as §1
# [12] = target: Gal(b1-3)GlcNAc(b1-3)Gal(b1-3)GlcNAc
# How it was run: as §1
# [13] = target: Gal(b1-3)GlcNAc(b1-3)Gal(b1-4)Glc
# How it was run: as §1
# [14] = target: Gal(b1-3)GlcNAc(b1-3)Gal(b1-4)GlcNAc
# How it was run: as §1
# [15] = target: Gal(b1-3)GlcNAc(b1-3)Gal(b1-4)GlcNAc(b1-2)Man(a1-3)[Gal(b1-3)GlcNAc(b1-3)Gal(b1-4)GlcNAc(b1-2)Man(a1-6)]Man(b1-4)GlcNAc(b1-4)GlcNAc
# How it was run: as §1
# [16] = target: Gal(b1-3)GlcNAc(b1-3)Gal(b1-4)GlcNAc(b1-2)[Gal(b1-3)GlcNAc(b1-3)Gal(b1-4)GlcNAc(b1-6)]Man(a1-6)[Gal(b1-3)GlcNAc(b1-3)Gal(b1-4)GlcNAc(b1-2)Man(a1-3)]Man(b1-4)GlcNAc(b1-4)[Fuc(a1-6)]GlcNAc
# How it was run: as §1
# [17] = target: Gal(b1-3)GlcNAc(b1-3)Gal(b1-4)GlcNAc(b1-3)Gal(b1-4)GlcNAc(b1-2)[Gal(b1-3)GlcNAc(b1-3)Gal(b1-4)GlcNAc(b1-3)Gal(b1-4)GlcNAc(b1-6)]Man(a1-6)[Gal(b1-3)GlcNAc(b1-3)Gal(b1-4)GlcNAc(b1-3)Gal(b1-4)GlcNAc(b1-2)Man(a1-3)]Man(b1-4)GlcNAc(b1-4)[Fuc(a1-6)]GlcNAc
# How it was run: as §1
# [18] = target: Gal(b1-3)GlcNAc(b1-3)Gal(b1-4)GlcNAc(b1-6)[Gal(b1-3)GlcNAc(b1-3)]Gal(b1-4)Glc
# How it was run: as §1
# [19] = target: Gal(b1-3)GlcNAc(b1-3)Gal(b1-4)[Fuc(a1-3)]GlcNAc
# How it was run: as §1
# [20] = target: Gal(b1-3)GlcNAc(b1-3)Gal(b1-4)[Fuc(a1-3)]GlcNAc(b1-6)[Gal(b1-3)GlcNAc(b1-3)]Gal(b1-4)Glc
# How it was run: as §1
# [21] = target: Gal(b1-3)GlcNAc(b1-3)GalNAc
# How it was run: as §1
# [22] = target: Gal(b1-3)GlcNAc(b1-6)Gal(b1-4)GlcNAc
# How it was run: as §1
# [23] = target: Gal(b1-3)GlcNAc(b1-6)GalNAc
# How it was run: as §1
# [24] = target: Gal(b1-3)GlcNAc(b1-6)[Gal(b1-3)]GalNAc
# How it was run: as §1
# Gal(b1-3)GlcNAc6S = target: Gal(b1-3)GlcNAc6S
# How it was run: as §1
# [25] = target: Gal(b1-3)[Fuc(a1-4)]GlcNAc
# How it was run: as §1
# [26] = target: Gal(b1-3)[Fuc(a1-4)]GlcNAc(b1-2)Man
# How it was run: as §1
# [27] = target: Gal(b1-3)[Fuc(a1-4)]GlcNAc(b1-2)Man(a1-3)[Gal(b1-3)[Fuc(a1-4)]GlcNAc(b1-2)Man(a1-6)]Man(b1-4)GlcNAc(b1-4)[Fuc(a1-6)]GlcNAc
# How it was run: as §1
# [28] = target: Gal(b1-3)[Fuc(a1-4)]GlcNAc(b1-3)Gal(b1-3)[Fuc(a1-4)]GlcNAc
# How it was run: as §1
binder,measurement,setting,value
B1,glycan array binding signal (z-score),Gal(a1-6)Glc,-0.248
same,glycan array binding signal (z-score),Gal(b1-2)Gal,-0.015
same,glycan array binding signal (z-score),Gal(b1-3)Gal,1.83
same,glycan array binding signal (z-score),Gal(b1-3)Gal(b1-4)GlcNAc,3.61
same,glycan array binding signal (z-score),Gal(b1-3)GalNAc,2.99
same,glycan array binding signal (z-score),[1],3.57
same,glycan array binding signal (z-score),[2],3.87
same,glycan array binding signal (z-score),Gal(b1-3)GalNAc(b1-3)Gal,8.62
same,glycan array binding signal (z-score),[3],3.07
same,glycan array binding signal (z-score),[4],17
same,glycan array binding signal (z-score),[5],2.86
same,glycan array binding signal (z-score),Gal(b1-3)GlcNAc,-0.202
same,glycan array binding signal (z-score),[6],-0.299
same,glycan array binding signal (z-score),[7],-0.36
same,glycan array binding signal (z-score),Gal(b1-3)GlcNAc(b1-2)Man,0.223
same,glycan array binding signal (z-score),[8],-0.25
same,glycan array binding signal (z-score),[9],-0.168
same,glycan array binding signal (z-score),[10],0.016
same,glycan array binding signal (z-score),[11],-0.018
same,glycan array binding signal (z-score),[12],-0.29
same,glycan array binding signal (z-score),[13],-0.409
same,glycan array binding signal (z-score),[14],-0.316
same,glycan array binding signal (z-score),[15],-0.199
same,glycan array binding signal (z-score),[16],0.022
same,glycan array binding signal (z-score),[17],0.093
same,glycan array binding signal (z-score),[18],-0.13
same,glycan array binding signal (z-score),[19],0.023
same,glycan array binding signal (z-score),[20],-0.126
same,glycan array binding signal (z-score),[21],-0.127
same,glycan array binding signal (z-score),[22],-0.269
same,glycan array binding signal (z-score),[23],-0.218
same,glycan array binding signal (z-score),[24],0.827
same,glycan array binding signal (z-score),Gal(b1-3)GlcNAc6S,-0.031
same,glycan array binding signal (z-score),[25],-0.142
same,glycan array binding signal (z-score),[26],0.116
same,glycan array binding signal (z-score),[27],-0.075
same,glycan array binding signal (z-score),[28],0.041

# Source: the supplement of paper PMC8728848
